Assay results as given in PubChem BioAssay (Tox21).
Several values for one entry are separate records, joined by “and”; a condition that tells them apart may be missing. Equal values may be shown once. Inconclusive means that the source gave no clear call. Such entries were picked first, then a sample of the others. Potencies beside an inconclusive call are fits to weak or partial responses and may not hold up. Some compounds were tested as several samples or in several runs, with calls that do not always agree. Activity calls are given as the source filed them. Unless noted, the call rests on the fitted dose curve; in most records, active means well fitted curve in the direction sought with a large enough effect in the repeat runs; inconclusive means weak or mixed curves; inactive means no such curve, though single readings can be large; an effect the other way counts as inactive or inconclusive.

How the values were obtained:
[1] = qHTS assay to identify small molecule antagonists of the retinoid acid receptor (RAR) signaling pathway - cell viability counter screen (AID 1159551); further: nearly all actives have a fitted effect of over 35% in size
Method in brief: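 C3RL4 RARE-luciferase line; cpds + retinol 1 uM final, 6 h, 37 C/5% CO2; CellTiter-Glo ATP luminescence, 30 min RT.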

[2] = qHTS assay to identify small molecule antagonists of the estrogen related receptor (ERR) signaling pathway - cell viability counter screen (AID 1224818)
Method in brief: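 Fluorescence from CellTiter-Fluor, read 30 min after reagent addition at 37 C, measured viability of ERR cells exposed to compounds for 17.5 h. Cells had settled 6 h before dosing.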

[3] = qHTS assay to identify small molecule antagonists of the estrogen related receptor signaling pathway with the pleiotropic PPARgamma coactivator (PGC) cell viability counter screen (AID 1224822)
Method in brief: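 Fluorescence read-out of CellTiter-Fluor after 30 min at 37 C; PGC/ERR cells, 2,000 per well, had been exposed to DMSO-dissolved compounds for 17.5 h following a 6 h pre-incubation.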

[4] = qHTS assay to identify small molecule antagonists of the estrogen related receptor (ERR) signaling pathway from Tox21 library - cell viability counter screen (AID 1224834); further: nearly all actives have a fitted effect of over 30% in size
Method in brief: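 Multiplexed viability counter screen in ERR cells: 17.5 h compound exposure at 37 C, CellTiter-Fluor added, 30 min at 37 C/5% CO2, fluorescence read.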

[5] = qHTS assay to identify small molecule antagonists of the constitutive androstane receptor (CAR) signaling pathway - cell viability counter screen (AID 1224837); further: nearly all actives have a fitted effect of over 45% in size
Method in brief: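 Read-out: CellTiter-Fluor fluorescence after 23 hr at 37 C/5% CO2. Cells: HepG2 double-stable for hCAR and CYP2B6-2.2kb. Compounds tested at 15 concentrations in the presence of CITCO, final concentration 50 nM.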

[6] = biological target: Nuclear receptor subfamily 1 group I member 3 (Homo sapiens) (UniProt Q14994); assay: qHTS assay to identify small molecule agonists of the constitutive androstane receptor (CAR) signaling pathway (AID 1224839); further: nearly all actives have a fitted effect of over 15% in size;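 on activation: HepG2 cells stably carrying human CAR and a CYP2B6 luciferase reporter; on the % scale 0 is the no-effect control and ±100 the full control effect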
Sequence of UniProt Q14994 (Q14994 whole entry, looked up): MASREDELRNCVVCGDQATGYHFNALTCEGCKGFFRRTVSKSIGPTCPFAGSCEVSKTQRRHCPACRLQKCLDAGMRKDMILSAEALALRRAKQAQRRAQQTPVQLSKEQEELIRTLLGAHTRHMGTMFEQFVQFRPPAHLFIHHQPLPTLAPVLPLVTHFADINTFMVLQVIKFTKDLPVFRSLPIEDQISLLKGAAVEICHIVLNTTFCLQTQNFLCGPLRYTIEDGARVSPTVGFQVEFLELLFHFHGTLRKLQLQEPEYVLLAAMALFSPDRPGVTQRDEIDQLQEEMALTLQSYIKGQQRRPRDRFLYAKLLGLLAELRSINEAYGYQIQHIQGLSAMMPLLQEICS
Method in brief: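 HepG2-CYP2B6-hCAR cells, 2500/well, 4 h pre-incubation; compounds 15 conc.; PK11195 0.75 uM final; 24 h, 37 C/5% CO2; ONE-Glo luciferase read.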

[7] = biological target: Thyrotropin receptor (Homo sapiens) (UniProt P16473); assay: qHTS assay to identify small molecule agonists of the thyroid stimulating hormone receptor (TSHR) signaling pathway (AID 1224843; calls by dose curve; further: nearly all actives have a fitted effect of over 45% in size; on activation: on the % scale 0 is the no-effect control and ±100 the full control effect); settings: TSHR-HEK293 cells, cAMP HTRF, agonist mode, 30 min; activation: at 92.4 µM (top of the series) unless noted
Sequence of UniProt P16473 (P16473 whole entry, looked up): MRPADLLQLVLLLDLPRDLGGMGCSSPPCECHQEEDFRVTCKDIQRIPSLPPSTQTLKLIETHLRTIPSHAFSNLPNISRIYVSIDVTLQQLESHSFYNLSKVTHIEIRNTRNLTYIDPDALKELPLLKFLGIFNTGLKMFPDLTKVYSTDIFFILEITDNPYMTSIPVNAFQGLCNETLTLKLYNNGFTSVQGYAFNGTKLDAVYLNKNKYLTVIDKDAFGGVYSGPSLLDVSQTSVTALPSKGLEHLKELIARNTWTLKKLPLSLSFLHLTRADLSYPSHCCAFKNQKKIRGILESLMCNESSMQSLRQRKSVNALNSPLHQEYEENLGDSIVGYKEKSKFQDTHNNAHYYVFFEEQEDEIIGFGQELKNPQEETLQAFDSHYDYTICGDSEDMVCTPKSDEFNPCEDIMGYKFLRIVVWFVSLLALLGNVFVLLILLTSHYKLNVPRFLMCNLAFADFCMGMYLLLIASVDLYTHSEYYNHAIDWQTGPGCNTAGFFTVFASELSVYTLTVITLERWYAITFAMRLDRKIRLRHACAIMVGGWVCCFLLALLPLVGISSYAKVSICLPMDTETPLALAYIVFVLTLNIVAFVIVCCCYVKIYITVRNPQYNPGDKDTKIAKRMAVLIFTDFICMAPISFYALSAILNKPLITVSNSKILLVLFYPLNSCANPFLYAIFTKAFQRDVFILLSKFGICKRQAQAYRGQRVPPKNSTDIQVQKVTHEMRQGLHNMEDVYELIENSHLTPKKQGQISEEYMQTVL
Method in brief: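 Using 15 concentrations per compound in triplicate, cAMP production was monitored in TSHR-HEK293 cells after 30 min compound incubation at RT; HTRF reagents followed, with fluorescence intensity recorded after 1 h.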

[8] = qHTS assay to identify small molecule agonists of the hypoxia (HIF-1) signaling pathway - cell viability counter screen (AID 1224844; calls by dose curve; further: nearly all actives have a fitted effect of over 50% in size)
Method in brief: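 CellTiter-Glo luminescence read-out, 30 min RT, taken in the same wells as the beta-lactamase HRE reporter assay; HRE-bla ME-180 cells, 0.5% dialyzed FBS, 17 hr compound treatment at 37C, 5% CO2.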

[9] = qHTS assay to identify small molecule antagonists of the estrogen related receptor signaling pathway with the pleiotropic PPARgamma coactivator (PGC) from Tox21 10K library - cell viability counter screen (AID 1224840; active means well fitted cell-killing curve with a large enough effect in the repeat runs, not every such curve was filed as active; inconclusive means weak or mixed curves, or effect the other way; inactive means no such curve, though single readings can be large or run the other way; further: nearly all actives have a fitted effect of over 40% in size)
Method in brief: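 Fluorescence read-out of CellTiter-Fluor viability reagent, added after cells had been exposed to compound in DMSO for 17.5 h at 37 C; 30 min development at 37 C/5% CO2. Cells: PGC/ERR line, 2,000/well.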

[10] = qHTS assay to identify small molecule agonists of the constitutive androstane receptor (CAR) signaling pathway - cell viability counter screen (AID 1224836); further: nearly all actives have a fitted effect of over 45% in size
Method in brief: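 HepG2-CYP2B6-hCAR, 2500 cells/well, 4 h pre-incubation; cpd 15 conc + PK11195 0.75 uM final; 23 h, 37 C/5% CO2; CellTiter-Fluor, fluorescence.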

[11] = biological target: Nuclear receptor subfamily 1 group I member 3 (Homo sapiens) (UniProt Q14994); assay: qHTS assay to identify small molecule antagonists of the constitutive androstane receptor (CAR) signaling pathway (AID 1224838);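 further: HepG2 cells stably expressing hCAR with CYP2B6 luciferase reporter stimulated by CITCO; nearly all actives have a fitted effect of over 40% in size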
Method in brief: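 Read-out: ONE-Glo luciferase luminescence after 30 min at room temperature. HepG2-CYP2B6-hCAR double-stable cells, compounds in 15-point titration plus 50 nM CITCO final, 24 h at 37 C/5% CO2.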
Potency means the concentration at half of the fitted maximal effect; tags describe the fitted curve by direction and shape or compound fluorescence and quenching.

| SMILES | Potency [1] | Potency [2] | Potency [3] | Potency [4] | Potency [5] | Potency [6] | activation [7] | Potency [7] | Potency [8] | Potency [9] | Potency [10] | Potency [11] |
| --- | --- | --- | --- | --- | --- | --- | --- | --- | --- | --- | --- | --- |
| CCN(CC)CCOC(=O)C1(C2CCCCC2)CCCCC1 | inconclusive: 33.5 µM [cytotoxic, single point] | inconclusive: 29.8 µM [cytotoxic, partial curve, poor fit] | inconclusive: 29.8 µM [cytotoxic, partial curve, poor fit] | inconclusive: 33.5 µM [cytotoxic] | inactive | inconclusive: 23.7 µM [activator, partial curve] | inconclusive: -24.1% [at 42.5 µM] | – | – | – | – | – |
| Cc1ccc(O)c(C(C)(C)C)c1 | inconclusive: 61 µM [cytotoxic, partial curve, poor fit] | – | – | inconclusive: 38.6 µM [cytotoxic, partial curve, poor fit] | inactive | – | – | inconclusive: 17.2 µM [inhibitor, partial curve, poor fit] | inconclusive: 54.8 µM [cytotoxic, single point] | – | – | – |
| COc1cccc(-c2ccc(/C=C\CN3CCCCCC3)cc2Cl)c1 | inconclusive: 60.9 µM [cytotoxic] | – | – | – | inconclusive: 60.9 µM [cytotoxic, partial curve, poor fit] | inactive | inconclusive: -16.2% | – | inconclusive: 54.7 µM [cytotoxic, single point] | active: 54.2 µM | – | – |
| CC[C@H](C)C(=O)O[C@H]1C[C@@H](C)C=C2C=C[C@H](C)[C@H](CC[C@@H]3C[C@@H](O)CC(=O)O3)[C@H]21 | inconclusive: 69.6 µM [cytotoxic] | – | – | – | inconclusive: 78 µM [cytotoxic, single point] | – | – | inactive | inconclusive: 70.1 µM [cytotoxic, single point] and inconclusive: 61.4 µM [cytotoxic, single point] | active: 69.6 µM | inconclusive: 78 µM [cytotoxic, single point] | inconclusive: 78 µM [inhibitor, single point] |
| NC(=O)N/N=C/c1ccc([N+](=O)[O-])o1 | inconclusive: 68.6 µM [cytotoxic, partial curve, poor fit] | – | – | – | – | inconclusive: 33.5 µM [activator, partial curve, poor fit] | – | – | – | inconclusive: 30.6 µM [cytotoxic] | inconclusive: 29.8 µM [cytotoxic, partial curve, poor fit] | inconclusive: 68.6 µM [inhibitor, single point] |
| C=C(c1ccc(C(=O)O)cc1)c1cc2c(cc1C)C(C)(C)CCC2(C)C | active: 61.1 µM and inconclusive: 29.8 µM [cytotoxic, single point] | – | – | active: 54.5 µM and inconclusive: 29.8 µM [cytotoxic, single point] | inconclusive: 68.6 µM [cytotoxic, single point] | active: 38.6 µM and inactive | – | – | active: 15.5 µM and active: 16.9 µM | active: 61.1 µM | inconclusive: 68.6 µM [cytotoxic, partial curve, poor fit] | inconclusive: 27.3 nM [inhibitor, full curve] and inconclusive: 84.1 nM [inhibitor, full curve] |
| C=CC(=O)OCC(O)COc1ccccc1 (centres undefined) | inconclusive: 77 µM [rising, partial curve, poor fit] | – | – | – | inconclusive: 68.6 µM [cytotoxic] | – | – | – | active: 38.9 µM | inconclusive: 68.6 µM [cytotoxic, partial curve] | inconclusive: 68.6 µM [cytotoxic] | inconclusive: 68.6 µM [inhibitor, single point] |
| O=C(Nc1ccc(Cl)cc1)Nc1ccc(Cl)c(C(F)(F)F)c1 | active: 29.8 µM | – | – | – | inconclusive: 16.8 µM [cytotoxic, full curve] | – | – | – | active: 26.8 µM | inconclusive: 8.41 µM [cytotoxic, partial curve] | inconclusive: 13.3 µM [cytotoxic, full curve] | – |
